# The full ranking holds about 81,000 sequences; the median of “one-hybrid fitness for binding NBS DNA” is about -0.1, and the highest 2% start at about 0.36. This is one part of the list.
# B1: Caulobacter ParB omega fusion; a variant is named by its letters at X, in order, B8GW30 (parent)
# chain: MESVVVGEPGMSEGRRGLGRGLSALLGEVDAAPAQAPGEQLGGSREAPIEILQRNPDQPRRTFREEDLEDLSNSIREKGVLQPILVRPSPDTAGEYQIVAGERAWRAAQRAGLKTVPIMVRELDDLAVLEIGIIENVQRADLNVLEEALSYKVLMEKFERTQENIAQTIGKSXSHVANXMRLLXLPDEVQSYLVSGELTAXHARAIAAAADPVALAKQIIEGGLSVRETEALARKAPNLSAGKSKGGRPPRVKDTDTQALESDLSSVLGLDVSIDHRGSTGTLTITYATLEQLDDLCNRLTRGI
# Variants of: B1
# Assay: one-hybrid fitness for binding NBS DNA (the Noc-binding site; scaled: cognate 1, non-cognate 0); higher = stronger binding
# Conditions: with NBS DNA site
# Procedure, shortened: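 On M9-minus-histidine containing 0.1 mM IPTG and 5 mM 3-AT, E. coli USO cells with a HIS3 reporter, site 19 bp from the promoter, grew 48 hours at 37°C to select Caulobacter ParB libraries randomised at four specificity codons. Plasmids from before and after were Illumina-sequenced, with three replicate libraries pooled and variants under 10 reads left out. Fitness is the log change in variant-to-wild-type read ratio, rescaled against cognate and non-cognate.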
row,Variant,one-hybrid fitness for binding NBS DNA
1,TKPF,≤ 0.2
2,QRYK,0.381
3,YTMR,≤ 0.2
4,NKQN,≤ 0.2
5,HPTS,≤ 0.2
6,RYCV,≤ 0.2
7,ANII,≤ 0.2
8,FKAS,≤ 0.2
9,ASMD,≤ 0.2
10,IRWG,≤ 0.2
11,RHVH,≤ 0.2
12,QRKN,0.573
13,CPPQ,≤ 0.2
14,GAES,≤ 0.2
15,PFTM,0.318
16,ALPW,≤ 0.2
17,RVQR,0.415
18,QYYV,≤ 0.2
19,IFGR,≤ 0.2
20,RDPA,≤ 0.2
21,VTKS,≤ 0.2
22,HDDI,≤ 0.2
23,AAPV,≤ 0.2
24,AYPC,≤ 0.2

row,Variant,one-hybrid fitness for binding NBS DNA
1,MRLW,≤ 0.2
2,VVTW,≤ 0.2
3,CFRY,≤ 0.2
4,RQTF,≤ 0.2
5,VAPW,≤ 0.2
6,PLME,≤ 0.2
7,IRVT,≤ 0.2
8,SYLL,≤ 0.2
9,FDAF,≤ 0.2
10,RPGC,≤ 0.2
11,SAVK,≤ 0.2
12,TLQD,≤ 0.2
13,QCCL,≤ 0.2
14,LCYK,≤ 0.2
15,SGES,≤ 0.2
16,RWFT,≤ 0.2
17,KTIG,≤ 0.2
18,PRNP,≤ 0.2
19,EVYG,≤ 0.2
20,CGQH,≤ 0.2
21,QHKV,0.44
22,LCNE,≤ 0.2
23,SGDI,≤ 0.2
24,DNRK,≤ 0.2

row,Variant,one-hybrid fitness for binding NBS DNA
1,PPYC,≤ 0.2
2,GLRN,≤ 0.2
3,PFDG,≤ 0.2
4,YRKS,≤ 0.2
5,AEWT,≤ 0.2
6,AAPI,≤ 0.2
7,RDEI,≤ 0.2
8,ASQI,≤ 0.2
9,KEHS,≤ 0.2
10,DRHR,≤ 0.2
11,GFRT,≤ 0.2
12,DWVR,≤ 0.2
13,INMD,≤ 0.2
14,PYHI,≤ 0.2
15,TDVM,≤ 0.2
16,IQFV,≤ 0.2
17,YWDR,≤ 0.2
18,HFLC,≤ 0.2
19,TCSA,≤ 0.2
20,WAQL,≤ 0.2
21,REPG,≤ 0.2
22,FRHM,≤ 0.2
23,KLMS,≤ 0.2
24,YHQL,≤ 0.2

row,Variant,one-hybrid fitness for binding NBS DNA
1,PYAM,≤ 0.2
2,DVIC,≤ 0.2
3,QCCG,≤ 0.2
4,PKKY,≤ 0.2
5,RIPR,≤ 0.2
6,ACWN,≤ 0.2
7,WWTS,≤ 0.2
8,FEHS,≤ 0.2
9,SFKR,0.246
10,ILPI,≤ 0.2
11,QFLI,≤ 0.2
12,TPVA,≤ 0.2
13,AHRI,≤ 0.2
14,AYMS,≤ 0.2
15,WVNV,≤ 0.2
16,CYYS,≤ 0.2
17,ASYW,≤ 0.2
18,LAIM,≤ 0.2
19,AMKS,≤ 0.2
20,YPCR,≤ 0.2
21,GNHC,≤ 0.2
22,QIKT,0.574
23,QDPI,≤ 0.2
24,RSNT,0.503

row,Variant,one-hybrid fitness for binding NBS DNA
1,QQVF,≤ 0.2
2,SSWA,≤ 0.2
3,CTAS,≤ 0.2
4,DRRY,≤ 0.2
5,QGMA,≤ 0.2
6,MSMG,≤ 0.2
7,SRLP,≤ 0.2
8,DLVE,≤ 0.2
9,QLDC,≤ 0.2
10,GPNL,≤ 0.2
11,TDQW,≤ 0.2
12,LNAR,≤ 0.2
13,SGRS,≤ 0.2
14,PSIN,≤ 0.2
15,REKM,≤ 0.2
16,VVAS,≤ 0.2
17,PMIR,≤ 0.2
18,IGGG,≤ 0.2
19,TGKH,≤ 0.2
20,QFDY,≤ 0.2
21,VFTM,≤ 0.2
22,NDLF,≤ 0.2
23,ASAG,≤ 0.2
24,ARFI,≤ 0.2

row,Variant,one-hybrid fitness for binding NBS DNA
1,MCIG,≤ 0.2
2,YDTR,≤ 0.2
3,PRQE,≤ 0.2
4,CSQV,≤ 0.2
5,HMPS,≤ 0.2
6,EQPK,≤ 0.2
7,MVVC,≤ 0.2
8,VAHI,≤ 0.2
9,FSKK,≤ 0.2
10,CSLP,≤ 0.2
11,ARQA,≤ 0.2
12,TWHI,≤ 0.2
13,LRDN,≤ 0.2
14,PSTD,≤ 0.2
15,RHWT,0.221
16,VALS,≤ 0.2
17,YLNE,≤ 0.2
18,MLWC,≤ 0.2
19,SVCF,≤ 0.2
20,HTWM,≤ 0.2
21,FVGT,≤ 0.2
22,ASFS,≤ 0.2
23,TYHC,≤ 0.2
24,KGRS,≤ 0.2

row,Variant,one-hybrid fitness for binding NBS DNA
1,RLMV,≤ 0.2
2,GYKM,≤ 0.2
3,KSAS,≤ 0.2
4,RYWR,0.269
5,QFCT,≤ 0.2
6,GNSR,≤ 0.2
7,TCYG,≤ 0.2
8,IKWW,≤ 0.2
9,WIHG,≤ 0.2
10,RMWS,0.269
11,AWRM,≤ 0.2
12,LMRR,0.2
13,SKYP,≤ 0.2
14,RFLI,≤ 0.2
15,TWAR,≤ 0.2
16,MWVG,≤ 0.2
17,LFVT,≤ 0.2
18,QIHI,≤ 0.2
19,QCPN,≤ 0.2
20,PIHR,≤ 0.2
21,PDNS,≤ 0.2
22,CWQL,≤ 0.2
23,NRIV,≤ 0.2
24,NRRR,0.251

row,Variant,one-hybrid fitness for binding NBS DNA
1,SWRS,≤ 0.2
2,QHRR,0.989
3,GFDS,≤ 0.2
4,AYND,≤ 0.2
5,SAKV,≤ 0.2
6,LVLH,≤ 0.2
7,EKSG,≤ 0.2
8,SCQR,≤ 0.2
9,LMVP,≤ 0.2
10,YVLT,≤ 0.2
11,YTGF,≤ 0.2
12,QKTY,≤ 0.2
13,FRQT,≤ 0.2
14,VGKI,≤ 0.2
15,SSAK,≤ 0.2
16,QHDC,≤ 0.2
17,KKKS,0.425
18,ITMT,≤ 0.2
19,EWDG,≤ 0.2
20,EAVM,≤ 0.2
21,RFIV,≤ 0.2
22,AGTG,≤ 0.2
23,CPHG,≤ 0.2
24,MHMT,≤ 0.2

row,Variant,one-hybrid fitness for binding NBS DNA
1,AWHM,≤ 0.2
2,ATCS,≤ 0.2
3,LCMS,≤ 0.2
4,STKE,≤ 0.2
5,SSTG,≤ 0.2
6,DEHT,≤ 0.2
7,DCNR,≤ 0.2
8,EWTG,≤ 0.2
9,QKPE,≤ 0.2
10,GGQS,≤ 0.2
11,QCTR,0.637
12,HQRV,≤ 0.2
13,LTNV,≤ 0.2
14,TGHN,≤ 0.2
15,DGSM,≤ 0.2
16,EQPG,≤ 0.2
17,MLGM,≤ 0.2
18,ERTL,≤ 0.2
19,YVDW,≤ 0.2
20,SGYS,≤ 0.2
21,EYQC,≤ 0.2
22,RHLK,≤ 0.2
23,GFGV,≤ 0.2
24,DAHH,≤ 0.2

row,Variant,one-hybrid fitness for binding NBS DNA
1,IRFR,≤ 0.2
2,AWPT,≤ 0.2
3,QFLC,≤ 0.2
4,PPNL,≤ 0.2
5,EKSC,≤ 0.2
6,TQWI,≤ 0.2
7,TIFP,≤ 0.2
8,RHRR,0.656
9,QTEN,≤ 0.2
10,EDTR,≤ 0.2
11,RVFE,≤ 0.2
12,TLYI,≤ 0.2
13,TCPV,≤ 0.2
14,NTVM,≤ 0.2
15,TMRS,≤ 0.2
16,PPIV,≤ 0.2
17,VSQV,≤ 0.2
18,VLKA,≤ 0.2
19,KPRR,≤ 0.2
20,SKER,≤ 0.2
21,TTQC,≤ 0.2
22,TTLG,≤ 0.2
23,RYHG,≤ 0.2
24,RWER,≤ 0.2

row,Variant,one-hybrid fitness for binding NBS DNA
1,IQHS,≤ 0.2
2,VHQM,≤ 0.2
3,HNLT,≤ 0.2
4,DHCS,≤ 0.2
5,RANA,0.202
6,VPGY,≤ 0.2
7,TWTS,≤ 0.2
8,HIRS,≤ 0.2
9,LMPP,≤ 0.2
10,DPHI,≤ 0.2
11,APHW,≤ 0.2
12,RGTM,≤ 0.2
13,VGAN,≤ 0.2
14,LQDC,≤ 0.2
15,VSNT,≤ 0.2
16,YVVT,≤ 0.2
17,KEVT,≤ 0.2
18,VPCF,≤ 0.2
19,DKRG,≤ 0.2
20,SPDV,≤ 0.2
21,TNMG,≤ 0.2
22,GGNC,≤ 0.2
23,SACV,≤ 0.2
24,TALL,≤ 0.2

row,Variant,one-hybrid fitness for binding NBS DNA
1,CSNR,≤ 0.2
2,VEGC,≤ 0.2
3,CTHF,≤ 0.2
4,GECC,≤ 0.2
5,LHNK,≤ 0.2
6,DGDR,≤ 0.2
7,CTTF,≤ 0.2
8,GDFY,≤ 0.2
9,EKPS,≤ 0.2
10,PHNN,≤ 0.2
11,YSSC,≤ 0.2
12,PQPF,≤ 0.2
13,EQGT,≤ 0.2
14,KRHT,0.651
15,ESRG,≤ 0.2
16,GLNV,≤ 0.2
17,SYNV,≤ 0.2
18,VCRV,≤ 0.2
19,GRKR,0.264
20,CCTE,≤ 0.2
21,QSPH,≤ 0.2
22,QLSH,≤ 0.2
23,PGSK,≤ 0.2
24,RCSM,≤ 0.2

row,Variant,one-hybrid fitness for binding NBS DNA
1,RMQH,≤ 0.2
2,WFGS,≤ 0.2
3,SASQ,≤ 0.2
4,YRHV,≤ 0.2
5,YNVS,≤ 0.2
6,VMEL,≤ 0.2
7,RLYC,≤ 0.2
8,CRRY,≤ 0.2
9,HYLE,≤ 0.2
10,EEHS,≤ 0.2
11,YLTR,≤ 0.2
12,AEFS,≤ 0.2
13,RQSH,≤ 0.2
14,CYTY,≤ 0.2
15,GQRG,≤ 0.2
16,NVMC,≤ 0.2
17,EAAL,≤ 0.2
18,VGNL,≤ 0.2
